Experimental data taken from article PMC11142921, “Antibody discovery identifies regulatory mechanisms of protein arginine deiminase 4” (Nature Chemical Biology, 2024).

B1: hPAD4 N438A (enzyme)
chain: not shown
notes: Protein arginine deiminase 4, human, point mutant (negative control); Mutant of the hPAD4 construct m1; source: cloned and expressed as hPAD4 (E. coli, Ni-NTA)
B2: hPAD4 N438R (enzyme)
chain: not shown
notes: as for B1

Target: the molecule itself
Test: SEC; analytical SEC, AdvanceBio SEC column 300 Å; each analyte injected at 10 μM; 50 mM Tris pH 8, 400 mM NaCl

Protein	binding result
B1	binds
B2	binds
